Data from article PMC11255866 (Protein Science : A Publication of the Protein Society, 2024).

Experiments:
Assay in all cases: fluorescence polarisation
[1] = target: SRPK1‐phosphorylated U1‐70K (human, UniProt P08621, phosphorylated by SRPK1: 8 to 9 phosphate groups, sites not determined)
U1‐70K, full-length = U1‐70K, full-length (human, UniProt P08621)
U1‐70K ∆366–375 = U1‐70K ∆366–375 (human, UniProt P08621, ∆366–375)
U1‐70K ∆238–247 = U1‐70K ∆238–247 (human, UniProt P08621, ∆238–247)
U1‐70K ∆257–266 = U1‐70K ∆257–266 (human, UniProt P08621, ∆257–266)

Binder	Kd [1]	Kd (U1‐70K, full-length)	Kd (U1‐70K ∆366–375)	Kd (U1‐70K ∆238–247)	Kd (U1‐70K ∆257–266)
Hyper‐phosphorylated SRSF1 (phosphorylated by Clk1), Alexa Fluor 488 labelled at T248C (natural protein, phosphorylated by Clk1 on arginine–serine and serine–proline repeats (18–22 phosphate groups); Alexa Fluor 488 at T248C) not shown	1500 ± 250 nM	110 ± 17 nM	140 ± 11 nM	90 ± 12 nM	270 ± 20 nM
Hypo‐phosphorylated SRSF1 (phosphorylated by SRPK1), Alexa Fluor 488 labelled at T248C (natural protein, phosphorylated by SRPK1 on arginine–serine repeats (9–13 phosphate groups); Alexa Fluor 488 at T248C) not shown		370 ± 40 nM			
Nonphosphorylated SRSF1, Alexa Fluor 488 labelled at T248C (natural protein, Alexa Fluor 488 at T248C) not shown		1600 ± 300 nM			
